Molecular target: T1, MalE-GadX (GadX fused to maltose-binding protein) (Escherichia coli K-12 (genomic library)) (UniProt P37639)
T1 sequence: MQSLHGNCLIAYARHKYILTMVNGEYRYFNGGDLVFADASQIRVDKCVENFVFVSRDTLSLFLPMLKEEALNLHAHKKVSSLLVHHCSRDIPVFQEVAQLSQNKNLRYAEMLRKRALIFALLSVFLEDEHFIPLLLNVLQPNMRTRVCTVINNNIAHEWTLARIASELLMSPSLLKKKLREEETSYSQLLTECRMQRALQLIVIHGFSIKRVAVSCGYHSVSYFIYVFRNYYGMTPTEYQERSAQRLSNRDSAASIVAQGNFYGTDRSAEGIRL
Assay: EMSA
Conditions: EMSA: binding buffer of Tramonti et al. (not given), room temperature 20 min, 5% native PAGE 0.5X TBE; footprinting: 40 mM HEPES pH 8.0, 100 mM KCl, 10 mM Mg …

CGTGAATCGAGTAGTTCCGACCTTAAATCCGTTACTTGCTTCTTATCCATTTTAAACTCCTTAAAATGATTGGATCGCATTAAAAAAGTAGGATTTATCGATAAAGTAAGCAAGTGCAAAGGACTCGTGTTTAAATAACAAAATCCTAATGTTATTTATCGTGAGATATTACGCGAATAATATTTTTTCATTGAAAAACAATACAATATGAAATTCTTGGGTGGTGGTAAGGTGTTTTATGCTGTTATT (double strand) [PgadB promoter fragment]
binding: binds

CGTGAATCGAGTAGTTCTGAGCGGAAATCCGTTAACAGCTTCTGGTCCATTTCGAACTCCTTAAATTTATTTGAAGGCAATAAAAAAGTAGGATTTATCCGCAATGGAAGCAAGGCATTACAGGCTTAATTTAAATAACAAAATCCTAAGCAGAAAAACGACTTTTTATAATATAAACATTTAACATGATAATATTAAAAACAGACTTTATTATCGTAATAAAAATCGCCCAAACATTGCTGTTCGGGCGATC (double strand) [PgadA promoter fragment]
binding: binds
